According to the supplement of paper PMC8512760:
The list shows a part of the results. Most values come without repeats; read them as rough.

These compounds were tested on MDA-468 (assay: cell viability relative to vehicle (% of vehicle); basal-like triple-negative breast cancer lines; higher = less cytotoxic). Details: 10 µM; 72 h.
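Further: stably firefly luciferase-GFP labeled cells in 96-well plates, viability read as luciferase photon flux after d-luciferin addition, treated wells normalized to vehicle wells, single-dose high-throughput screen.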

Compound	cell viability
CC12CCC(O)CC1=CCC1C2CCC2(C)C(c3cccnc3)=CCC12 (centres undefined) [Abiraterone]	119
CC(C)NCC(O)COc1ccc(COCCOC(C)C)cc1.O=C(O)C=CC(=O)O (centres undefined) [Bisoprolol fumarate]	102
CN(C)C(=O)c1cc2cnc(Nc3ccc(N4CCNCC4)cn3)nc2n1C1CCCC1	163
Cc1cccc(CN2CCN(C(c3ccccc3)c3ccc(Cl)cc3)CC2)c1.Cl.Cl (centres undefined) [Meclizine 2HCl]	125
Cl.Cl.Clc1ccc(Nc2nnc(Cc3ccncc3)c3ccccc23)cc1 [Vatalanib (PTK787) 2HCl]	81.7
CNNCc1ccc(C(=O)NC(C)C)cc1.Cl [Procarbazine HCl]	115
CC1OC(n2cc(F)c(=O)[nH]c2=O)C(O)C1O (centres undefined) [Doxifluridine]	88.4
CC1(C)SC2C(NC(=O)C(NC(=O)N3CCN(S(C)(=O)=O)C3=O)c3ccccc3)C(=O)N2C1C(=O)O.[Na] (centres undefined) [Mezlocillin Sodium]	103
Cc1ccc(C(=O)C(C)CN2CCCCC2)cc1.Cl (centres undefined) [Tolperisone HCl]	112
CCOC(=O)C1OC1C(=O)NC(CC(C)C)C(=O)NCCC(C)C (centres undefined)	85
CN1CCN(c2ccc(C(=O)/N=c3\[nH][nH]c4ccc(Cc5cc(F)cc(F)c5)cc34)c(NC3CCOCC3)c2)CC1 [Entrectinib]	33.3
CC(C)(Oc1ccc(C2CC2(Cl)Cl)cc1)C(=O)O (centres undefined) [Ciprofibrate]	105
CN1CCC(=C2c3ccccc3CCc3sccc32)CC1.O=C(O)CC(O)C(=O)O [Pizotifen Malate]	135
COc1ccnc(C[S+]([O-])c2nc3cc(OC(F)F)ccc3[nH]2)c1OC (centres undefined) [Pantoprazole]	101
CC(S)C(=O)NCC(=O)O (centres undefined) [Tiopronin (Thiola)]	118
CN1CCN(c2c(F)cc3c(=O)c(C(=O)O)cn4c3c2OCN4C)CC1 [Marbofloxacin]	88.6
CS(=O)(=O)c1ccc(C(O)C(CO)NC(=O)C(Cl)Cl)cc1 (centres undefined) [Thiamphenicol]	105
Cc1ncc(C[n+]2csc(CCO)c2C)c(N)n1.Cl.[Cl-] [Thiamine HCl (Vitamin B1)]	107
Nc1nc(=O)c2c(CCc3ccc(C(=O)NC(CCC(=O)O)C(=O)O)cc3)c[nH]c2[nH]1.O.[Na+] (centres undefined) [Pemetrexed disodium hemipenta hydrate]	71.6
CCCCC1C(=O)N(c2ccccc2)N(c2ccccc2)C1=O [Phenylbutazone]	110

Compound	cell viability
CO[C@H]1O[C@@H]2OC3(C)CC[C@H]4[C@H](C)CC[C@@H]([C@H]1C)[C@@]24OO3 [Artemether]	94.8
CC(C)(C)NC(=O)NC(C(=O)N1CC2C(C1C(=O)NC(CC1CCC1)C(=O)C(N)=O)C2(C)C)C(C)(C)C (centres undefined) [Boceprevir]	78.9
CC(CCC(=O)O)C1CCC2C3CCC4CC(O)CCC4(C)C3CCC12C (centres undefined) [Lithocholic Acid]	109
CC(C(=O)[O-])c1cccc(Oc2ccccc2)c1.CC(C(=O)[O-])c1cccc(Oc2ccccc2)c1.[Ca+2] (centres undefined) [Fenoprofen Calcium]	94.1
Cc1c(O)cccc1C(=O)NC(CSc1ccccc1)C(O)CN1CC2CCCCC2CC1C(=O)NC(C)(C)C (centres undefined) [Nelfinavir]	103
CCC(=C(c1ccccc1)c1ccc(OCCN(C)C)cc1)c1ccccc1.O=C(O)CC(O)(CC(=O)O)C(=O)O [Tamoxifen Citrate]	120
CN1CCN(CCCN2c3ccccc3Sc3ccc(Cl)cc32)CC1 [Prochlorperazine]	113
CN(C)CC(c1ccc(O)cc1)C1(O)CCCCC1 (centres undefined) [Desvenlafaxine]	108
CCCCOc1cc(C(=O)OCCN(CC)CC)ccc1N.Cl [Oxybuprocaine HCl]	72.3
CS(=O)(=O)Nc1ccc([N+](=O)[O-])cc1Oc1ccccc1 [Nimesulide]	107
Cc1ncc(CO)c(CO)c1O.Cl [Pyridoxine HCl]	105
CC(=O)O.C[C@H](N)C(=O)O.NCCCC[C@H](N)C(=O)O.N[C@@H](CCC(=O)O)C(=O)O.N[C@@H](Cc1ccc(O)cc1)C(=O)O [glatiramer acetate]	110
CC(C)NCC(O)c1ccc(O)c(O)c1.Cl (centres undefined) [Isoprenaline HCl]	144
COC(=O)Nc1nc2ccc(C(=O)c3ccc(F)cc3)cc2[nH]1 [Flubendazole]	131
CC1CC2C3CCC4=CC(=O)C=CC4(C)C3(Cl)C(O)CC2(C)C1(OC(=O)c1ccco1)C(=O)CCl (centres undefined) [Mometasone furoate]	170
COc1ccc(C=Cc2cc(OC)c(OC)c(OC)c2)cc1OP(=O)([O-])[O-].[Na+].[Na+] [Fosbretabulin (Combretastatin A4 Phosphate (CA4P)) Disodium]	83.3
Nc1nc(NC2CC2)c2ncn(C3C=CC(CO)C3)c2n1.O=S(=O)(O)O (centres undefined) [Abacavir sulfate]	87.6
CCC1=CC2CN(C1)Cc1c([nH]c3ccccc13)C(C(=O)OC)(c1cc3c(cc1OC)N(C)C1C(O)(C(=O)OC)C(OC(C)=O)C4(CC)C=CCN5CCC31C54)C2.O=C(O)C(O)C(O)C(=O)O.O=C(O)C(O)C(O)C(=O)O (centres undefined) [Vinorelbine ditartrate]	93.5
O=C1NC([O-])=NC1(c1ccccc1)c1ccccc1.[Na+] [Phenytoin sodium]	101
